Laboratory results reported in the supplement of paper PMC11417369.
The other results are listed elsewhere or left out.

test system: PF3D7_0420300 AP2 domain 1 (GST-tagged); assay: gcPBM binding intensity (ln(normalized median fluorescence intensity)); higher = stronger DNA binding
Summary of the method: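 Plasmodium falciparum DNA-binding domains carrying a GST tag were expressed in E. coli and applied for 1 h, at about 25 μg on average, to an Agilent 4 × 180k array. The array held primer-extended double-stranded 36-bp intergenic genomic probes together with negative controls, and binding took place in 1× PBS with 1% milk, 0.2 mg/ml BSA, 0.5% salmon testes DNA and 0.03% Triton X-100. An Alexa488 anti-GST antibody detected bound protein, and the array was scanned at 488 nm. Binding intensity is taken as the highest Masliner-normalised natural-log median intensity across replicate spots of either probe orientation.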

Sequence	gcPBM binding intensity (ln)
TTTCATGTTTTAAAGTGTACATAAATATATTATATG [XGTACX_site3367]	9.18
TTTTTAATAAAATGATTGATAATTATTAAATTAAAA [CACACA_negctrl_site488]	8.45
TTGTGTTTGCGTAAATGTACGGAAAGACTTGAAGAC [XGTACX_site7235]	9.39
TTGTTAGAGTATATTGAAAGGATAACCTTTTTTTAT [XGTACX_negctrl_site122]	9.01
TATTTTAACTTCTCATGTACATATATTATGTCTATA [XGTACX_site249]	9.42
TATCATAAACTTCCTTACTATACTTTTCTTATTCAT [CACACA_negctrl_site1341]	9.36
CTTTGTAGTATATTAACACACAACTATTTATAATAT [CACACA_site3934]	9.39
ATTTTTAAGCATATCAAAAAAAAAAAAAAAATTAAT [CACACA_negctrl_site980]	9.1
TTACTAAAAATTATTAATAAATAATAATTATAAATT [GTGCAC_negctrl_site310]	8.86
TAAAAAGGAAAACACACACACACATATATATATATA [CACACA_site3588]	9.9
TTTCCAATTAGTTTTGCATGTTGAAAAAATGTTGGA [TGCATGCA_site1035]	8.84
TTATTATTAAGACACACACACAAAAAAAAAAAAAAA [CACACA_site6805]	9.73
TAGATACATACACGCACACACATATATAAATAAATA [CACACA_site6157]	9.85
AAAAAAAACAGACACACACACATACACATACATACA [CACACA_site2857]	10.2
TAATTATGTACTATTATACACACGTTTAATTGTAAA [CACACA_site206]	9.29
TTACGTATGTATTATGTTGTATATGAAATTAAAAAA [GTGCAC_negctrl_site292]	8.97
AATAATATATGGTGTACACAAAAGTATAAATAATTT [CACACA_site5338]	9.56
TATAAAAAAATAATAAATAAATAAAAAGATTTCTTT [TGCATGCA_negctrl_site122]	8.51
AATAAATTAAAACAGGTGCACTATATTACACACGCT	9.53
TAGATACAGAAACACACACACACATACATATATACA [CACACA_site3437]	10.2
AGAATTATTGTTAATGCATGTGGAAGTTAAAATATT [TGCATGCA_site188]	9.33
TTATGGAGAGTTATATGTACGAAAAATATGTATAAG [XGTACX_site515]	9.31

Sequence	gcPBM binding intensity (ln)
TATATAGTAATTTATTCACACAATTGGCACACCTCA [CACACA_site4679]	9.42
TATTTAAATTGTAAGTGTACATATATAAATGTAAAA [XGTACX_site1609]	8.98
TATAATATATATTTGTGTCCACAACATTTTTAATAT [XGTACX_site2089]	9.08
AGCCATTATAATTCTTGTACATAATATAGCTATTTT [XGTACX_site1723]	9.47
ACATATATATAATATATATTTTTCGTGTGGTGTCAC [CACACA_negctrl_site543]	9.14
GAGCACCAAAATATATGTACATATGATAAATGTGAA [XGTACX_site1130]	9.18
AATATATATATAGGATGTACACATAATTCAAATATA [XGTACX_site2755]	9.4
ATCATTGAAGTTAAAAATATAAAGTATTCAGAAGGG [XGTACX_negctrl_site560]	9.34
TTTTTTATTTTATTTTTTTCTGCTTATCCACATTAG [XGTACX_negctrl_site108]	9.2
TCACTTTTATAATATAATATTCTATATCTTATTTTT [GTGCAC_negctrl_site717]	9.41
TTGTGAATAACTAAGAAGAAAAAGATAAATATGTAT [TGCATGCA_negctrl_site388]	9.19
TATTCATGCATATACACACACATATATTTATATTTT [CACACA_site7786]	9.78
AATAATATTGAAATGTGTACGTATTTATATTTTATG [XGTACX_site8252]	9.42
TTTTGTTATATTCAATATTTATATATTATAAATATA [CACACA_negctrl_site1705]	9.11
TTTTTCTTTTTTACAGTGCATAAATATATGTATTGT [GTGCAC_site9399]	9.31
TATATAATAACATATGCATGCAAGTAATATAACCAA [TGCATGCA_site324]	9.51
TATAATATATATGTAACACACAAAAGTTATATACTT [CACACA_site2868]	9.37
ATATATTATATTTAAGTGCATTAATTAAAATGCTTA [GTGCAC_site9403]	8.88
CATTAATATATATATAGTACATATACACCTTCATTA [XGTACX_site8473]	9.34
AAAAAAAATCAGACAGGTACACATTCCATGTTCAAA [XGTACX_site5380]	9.32
TATGAAGTGCACAATACACACTAATTCTATATAAAT [CACACA_site7269]	9.33
CAATTAAAAAATAATACATGCATATAAATAGATATT [TGCATGCA_site427]	9.39

Sequence	gcPBM binding intensity (ln)
ATAATTAAATAAAAAAGTACACATACATCATAATGC [XGTACX_site7656]	9.59
AAAATAAATATAAAATGTACTTATATATATATATAT [XGTACX_site7803]	9.19
TAAGAATACGAAAGGTGTACACTGTGGAGACTTCAA [XGTACX_site2619]	9.46
TTTACACTTTTTTTTGTACACACTAATAAGATTAAC [CACACA_site9304]	9.42
ACATTACAATTATTATAATCAATATATAACCTCTAA [TGCATGCA_negctrl_site105]	9.08
AAAAAAATTTTTAAAAGTACATTAATATTAATATGT [XGTACX_site5177]	9.16
AAATATATTTTTTTTTGTACTCAAAAAGAAAAAAAA [XGTACX_site8540]	8.7
ATAAAATTATATACTCGTACACAAAAAAAAAAAATA [XGTACX_site6035]	9.38
AAAAATTGAATGATGTGTACTTAAAAGAATATAGAA [XGTACX_site6588]	9.27
ATTATAAATAAAATATGTACATATGTATAAATACAT [XGTACX_site4002]	9.21
AAAACACATACTATATGTACATATAATAATTTATAT [XGTACX_site4525]	9.54
TTCTGTATATAGTGTGCACACAATTAAAAAAAAAAA [CACACA_site8400]	9.48
AAGAAAAAAAAAAAAAAAAAAAAAAAAAAAAAAAAA [TGCATGCA_negctrl_site263]	8.72
TTGCACTCGTAAAAAGCACACATATAAAAACATTTA [CACACA_site7997]	9.18
TTAAAAATGTTATAATGTACATATAATATTTTATGA [XGTACX_site5954]	8.79
TTTATCCTTCTTTTGAGTACTCAAAGAGACCTATAA [XGTACX_site8050]	8.83
ATTATAAATATAAATATAAATATATATTGTTCCGCA [TGCATGCA_negctrl_site470]	9.01
TATATATATATATATATATATATTTTTATTATATAT [XGTACX_negctrl_site89]	8.86
GTTGTAAAAAGAAAATGTACGTAATAAATATATATA [XGTACX_site3081]	9.33
AATACTCCATTGTATAGTACATATATTTTTATTTAT [XGTACX_site3641]	9.33
AATAAAAAAAAAAATAATATATATGTATAAATATAT [CACACA_negctrl_site1561]	9.31
TATTTTTATTTATATACACACTTACATATTTATATT [CACACA_site7666]	9.56

Sequence	gcPBM binding intensity (ln)
AGAATTTATAAAAACTGTACATATTTTCCAGTTATA [XGTACX_site2848]	9.15
TAATGTACTTAAACCGCACACATATAAAAAAATAAA [CACACA_site8926]	9.25
TTATTTTAATTTTTGGTGCATATTCAAGTGTACCTT [GTGCAC_site9791]	9.03
TTTTGTAAAATTAATTTATTATACATATATATTTCT [GTGCAC_negctrl_site728]	9.2
TATTTACATATTTATATACACACTTTTGCGTGTCTG [CACACA_site1110]	9.42
AAATAAAATACAATATGATAAAATGTTATCATATAT [CACACA_negctrl_site538]	9.33
ATAAATAATATAAATACACACTAAAAAAGATATATA [CACACA_site6397]	9.69
AATAAAAGGAATAATTGTACATAATGATTATACGTT [XGTACX_site7548]	9.4
ATTATATTTCAATTATGTACATATAAAATGAATAAA [XGTACX_site4204]	9.08
TTTTTTTTTTTTTTTTTTTTCTTCATTTAATTTATA [GTGCAC_negctrl_site17]	8.31
AATTTTCATTTTAGAAGTACACACAAAAAATAAAAT [XGTACX_site4426]	9.46
TTTTCATGTTTTTTTCTTTATTTTTTTTTTTTTTTT [GTGCAC_negctrl_site511]	9.43
TTTTTTTATTATTATTGTACAAGGCCTTAGGTGATT [XGTACX_site5050]	8.96
TACTTAATTATAAGGACATGCACAAAAGGAATTATT [TGCATGCA_site468]	9.36
CATATTGTCATTCTGGTGCACTTTTTTTTTTTTTTT	9.52
ATATAATATAACAATACGCACACGTATACAAAAAAA [CACACA_site3151]	9.5
AGGAAATGTTTATATACATGCATAATTAAATATAAT [TGCATGCA_site672]	9.24
ATGTAATCATTTTCGACTTTTTTTTTTTTTTTTTTT [CACACA_negctrl_site1132]	9.26
TTTTTAATTAATCTTATAAATATTTATAAATATATA [CACACA_negctrl_site1485]	8.84
ATAAAATGCGCAAACACACACAAAAAAAAGATATAT [CACACA_site6875]	10
TAAATATTATTTCATAGTACTTTTATTATTGATATA [XGTACX_site5566]	9.18
